{"source": "patent US9150634B2", "about": "“Epitopes of the human PDGF receptor able to bind human auto-antibodies, antibodies and uses thereof” (priority 2010, dated 2015)", "key": {"[1]": {"target": "T1, PDGFR alpha (Homo sapiens, UniProt P16234)", "T1 sequence (P16234 24-1089)": "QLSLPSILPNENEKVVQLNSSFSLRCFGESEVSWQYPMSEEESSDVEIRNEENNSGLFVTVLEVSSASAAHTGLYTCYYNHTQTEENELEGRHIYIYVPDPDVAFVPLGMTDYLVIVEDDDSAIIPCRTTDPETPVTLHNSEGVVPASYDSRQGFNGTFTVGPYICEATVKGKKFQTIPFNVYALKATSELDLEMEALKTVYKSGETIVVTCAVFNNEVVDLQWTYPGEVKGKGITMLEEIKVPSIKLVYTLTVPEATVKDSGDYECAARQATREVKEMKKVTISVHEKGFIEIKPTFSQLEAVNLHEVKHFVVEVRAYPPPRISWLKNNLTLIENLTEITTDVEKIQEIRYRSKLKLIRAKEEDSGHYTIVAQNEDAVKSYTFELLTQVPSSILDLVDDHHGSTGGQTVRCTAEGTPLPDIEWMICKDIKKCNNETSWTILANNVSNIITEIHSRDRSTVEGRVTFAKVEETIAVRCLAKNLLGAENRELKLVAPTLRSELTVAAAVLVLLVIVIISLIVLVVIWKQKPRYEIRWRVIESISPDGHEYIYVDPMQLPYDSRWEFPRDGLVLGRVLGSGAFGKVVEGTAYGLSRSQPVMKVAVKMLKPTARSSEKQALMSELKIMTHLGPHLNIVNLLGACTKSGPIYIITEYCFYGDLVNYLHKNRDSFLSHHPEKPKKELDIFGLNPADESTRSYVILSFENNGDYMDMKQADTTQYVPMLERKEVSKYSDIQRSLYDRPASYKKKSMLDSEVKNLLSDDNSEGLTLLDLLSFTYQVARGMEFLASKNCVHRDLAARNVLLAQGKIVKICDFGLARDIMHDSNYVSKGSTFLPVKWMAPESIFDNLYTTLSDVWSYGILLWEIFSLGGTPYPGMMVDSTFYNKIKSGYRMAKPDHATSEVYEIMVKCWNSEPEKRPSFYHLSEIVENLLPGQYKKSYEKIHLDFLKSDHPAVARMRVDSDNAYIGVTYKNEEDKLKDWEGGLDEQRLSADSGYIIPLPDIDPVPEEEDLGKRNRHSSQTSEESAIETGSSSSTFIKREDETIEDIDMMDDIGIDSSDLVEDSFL", "assay": "competitive binding on optical biosensor", "set-up": "cDNA encoding aminoacids 1-834 of human PDGFR alpha; made in house", "method": "To draw a map of the PDGFR alpha epitopes recognized by the rHumaab, competitive binding experiments were performed on the optical biosensor platform, where the surface of immobilized HIS-tagged PDGFR alpha was saturated with PDGF-BB prior to the addition of each rHumaab.\nBinding assays were performed on a IAsys plus biosensor. The carboxylate surface was equilibrated with PBS buffer, and activated by addition of an equimolar mixture of N-hydroxysuccinimide and N-ethyl-N-(dimethylaminopropyl) carbodiimide hydrochloride following the standard procedure (Davies, R J et al. Academic Press: San Diego, 1994).\nNext, His-tagged PDGFR alpha (200 micrograms/mL) was incubated over the surface for 20 min, and free carboxylic sites on the sensor surface were deactivated by injection of 1M ethanolamine, pH 8.5. Finally, the surface was re-equilibrated with PBS. rHumaab and PDGF-BB were added at different concentrations, and association kinetics were followed up to equilibrium, whereas dissociation steps and surface regeneration were performed by addition of fresh buffer, each time assessing the baseline recovery prior to any new addition of ligand. Kinetic and equilibrium parameters were derived from global fit of raw data both to mono- and bi-exponential models (Cuccioloni M et al. J Lipid Res 2011; 52 (5): 897-907)."}, "[2]": {"test_system": "human smooth muscle cells", "assay": "proliferation and migration of human smooth muscle cells", "assay_type": "cell-based", "conditions": "preliminary results"}, "[3]": {"test_system": "normal human fibroblasts", "assay": "ROS production in normal human fibroblasts (DCFH-DA fluorescence)", "assay_type": "cell-based", "conditions": "10 micrograms/ml, 15 minutes incubation", "source_text": "(§1) FIG. 5 Characterization of recombinant human monoclonal auto-antibodies (rHumaab). IgG were affinity-purified from serum-free supernatants of CHO cells stably transfected with each of the four rHumaab constructs and used (10 micrograms/ml) in four independent assays. Each result is representative of three experiments performed under the same conditions. (a) Vk13B8, Vk16F4 and Vlambda16F4, but not Vlambda13B8 rHumaab, immunoprecipitated PDGFR alpha from normal human fibroblast extracts. A mouse monoclonal anti-PDGFR alpha antibody was used as positive control. Immunoprecipitated PDGFR alpha was visualized by immunoblotting with rabbit anti-PDGFR alpha antibody-HRP. (b-c) Vk16F4 and Vlambda16F4, but not Vk13B8 and Vlambda13B8 rHumaab, induced (b) ROS production and (c) increased ERK phosphorylation (p-ERK) in normal human fibroblasts after 15 minutes incubation. […] Intracellular ROS production was measured by DCFH-DA fluorescence. […] Type I A1 and A2 collagen gene expression was measured by quantitative real-time PCR in RNA extracted from fibroblasts at baseline and after stimulation with the indicated reagents. […] Mouse collagen gene expression was measured by quantitative real-time PCR in RNA extracted from F alpha and F−/− fibroblasts at baseline and after 1 hour stimulation with Vk16F4 rHumaab or human PDGF-BB. […]"}, "[4]": {"test_system": "normal human fibroblasts", "assay": "ERK phosphorylation (p-ERK immunoblot) in normal human fibroblasts", "assay_type": "cell-based", "conditions": "10 micrograms/ml, 15 minutes incubation", "source_text": "as §1"}, "[5]": {"test_system": "mouse fibroblasts transfected with full-length human PDGFR alpha (F alpha) or mock (F−/−)", "assay": "mouse collagen gene expression in F alpha and F-/- fibroblasts", "assay_type": "cell-based", "conditions": "F alpha and F−/− cells treated in parallel; 1 hour stimulation", "source_text": "as §1"}, "[6]": {"test_system": "normal human fibroblasts", "assay": "type I collagen gene transcription in normal human fibroblasts (real-time PCR)", "assay_type": "cell-based", "source_text": "FIG. 5 Characterization of recombinant human monoclonal auto-antibodies (rHumaab). IgG were affinity-purified from serum-free supernatants of CHO cells stably transfected with each of the four rHumaab constructs and used (10 micrograms/ml) in four independent assays. Each result is representative of three experiments performed under the same conditions. (a) Vk13B8, Vk16F4 and Vlambda16F4, but not Vlambda13B8 rHumaab, immunoprecipitated PDGFR alpha from normal human fibroblast extracts. A mouse monoclonal anti-PDGFR alpha antibody was used as positive control. Immunoprecipitated PDGFR alpha was visualized by immunoblotting with rabbit anti-PDGFR alpha antibody-HRP. (b-c) Vk16F4 and Vlambda16F4, but not Vk13B8 and Vlambda13B8 rHumaab, induced (b) ROS production and (c) increased ERK phosphorylation (p-ERK) in normal human fibroblasts after 15 minutes incubation. Levels of ROS and p-ERK in fibroblasts at baseline and upon 15 minutes incubation with PDGF-BB are shown. Intracellular ROS production was measured by DCFH-DA fluorescence. Total proteins extracted from fibroblasts at baseline and after stimulation with the indicated reagents were immunoblotted with a mouse monoclonal antibody specific for p-ERK. (d) Vk16F4, but not the other rHumaab, induced increase of type I collagen gene transcription in normal human fibroblasts after 1 hour incubation. Type I A1 and A2 collagen gene expression was measured by quantitative real-time PCR in RNA extracted from fibroblasts at baseline and after stimulation with the indicated reagents. […] Mouse collagen gene expression was measured by quantitative real-time PCR in RNA extracted from F alpha and F−/− fibroblasts at baseline and after 1 hour stimulation with Vk16F4 rHumaab or human PDGF-BB.\nHuman skin fibroblasts were cultured and used within the fifth passages. […] For collagen gene quantification, total RNA was extracted from human and mouse fibroblasts at baseline and after 1 hour stimulation with the reagents indicated above, using Aurum total RNA mini Kit (Bio-Rad), which included DNase treatment. […]"}, "[7]": {"target": "T1, PDGFR alpha", "assay": "immunoprecipitation and immunoblotting of PDGFR alpha from human fibroblast extracts", "assay_type": "binding", "set-up": "100 micrograms of total protein from human fibroblast extract; endogenous in cells; host or cells: normal human (skin) fibroblasts, total cell extract", "conditions": "normal human fibroblast extracts; 10 micrograms/ml", "method": "Immunoprecipitating antibodies were individually incubated for 4 hours at 4° C. with an aliquot of 100 micrograms of total protein from human fibroblast extract. The reaction mixture was adjusted to a final volume of 500 microliters with assay buffer (PBS, 1% Nonidet P-40, 0.5% sodium deoxycholate, 1 mM PMSF). Rabbit anti-PDGFR alpha antibody and rabbit IgG (Santa Cruz), IgG purified from EBV-transformed B cell culture supernatants and rHumaab were used at 10 micrograms/ml, total IgG purified from serum of SSc patients and healthy subjects at 200 micrograms/ml. Then, 20 microliters agarose-Protein A/G (Santa Cruz) were added to the antibody-cell extract mixture and incubated overnight under rotation at 4° C. After centrifugation and extensive washing, immunoprecipitates were suspended in 20 microliters of loading buffer (150 mM Tris-HCl, pH 6.8/6% SDS/0.3% bromophenol blue/30% glycerol) and heated to 100° C. for 10 minutes prior to immunoblotting with a commercial rabbit anti-PDGFR alpha antibody (Santa Cruz)."}, "[8]": {"target": "T1, PDGFR alpha", "assay": "optical biosensor binding to immobilized His-tagged PDGFR alpha", "set-up": "cDNA encoding aminoacids 1-834 of human PDGFR alpha; made in house", "method": "A detailed characterization of rHumaab interaction with human PDGFR alpha was performed on an optical biosensor, using as a molecular bait a homemade truncated conformer of this receptor containing the complete extracellular and transmembrane regions joined to a poly-histidine tail (HIS tag) replacing part of the intracellular domain, and serving both as an anchor to the biosensor surface and as a spacer. Preservation of proper folding of the immobilized receptor into a naïve-like conformation was verified by monitoring the interaction with its natural binding partner (PDGF-BB) and with two mouse monoclonal antibodies specific for conformational PDGFR alpha epitopes (FIG. 6a). Using this approach, both kinetics and equilibrium parameters of the interaction between PDGF-BB, each rHumaab and PDGFR alpha were determined. […]\ncDNA encoding aminoacids 1-834 of human PDGFR alpha was inserted in the pcDNA V5 HIS A vector (Invitrogen), in order to fuse the COOH— terminal of the protein with a 6× histidine tag. […] Presence of a single His-tagged PDGFR alpha product in eluted fractions was evaluated by immunoblotting with specific anti-PDGFR alpha (R&D Biosystems) and anti-histidine (Sigma-Aldrich) monoclonal antibodies. […]\nRelative quantification of target genes between samples was calculated by the 2^−ΔΔCt method using the program iQ5 (Bio-Rad). […]"}}}
{"molecule": "Vk16F4: recombinant human monoclonal IgG1, VH PAM paired with Vk16F4 VL (SEQ ID No. 6; SEQ ID No. 12); agonistic anti-PDGFR alpha (antibody, V domains shown) VH: GLVKPLETLSLTCSVSGGSVSDGSYFWNWIRQPPGKGLEWIGYAYSRGTTNYSPSLKGRITISVDKSKNQISLKLTSVTPADTAVYYCARDSFEIWGQGTMVTV VL: DIQMTQSPDSLAVSLGERATINCKSSQSVLYSSDNKNYLAWYQQKPGQPPKLLLYWASTRESGVPDRFSGSGSGTDFTLTISSLQAEDVAVYYCQQYYSTPKTFGQGTKVEIK", "values": [{"measurement": "binding to PDGFR alpha pre-saturated with Vk13B8 rHumaab", "setting": "[1]; 10 nM Vk16F4, receptor saturated with molar excess of Vk13B8", "value": "only marginally interfered"}, {"measurement": "binding to PDGFR alpha pre-saturated with PDGF-BB", "setting": "[1]; immobilized His-tagged PDGFR alpha saturated with molar excess of PDGF-BB", "value": "prevented"}, {"measurement": "migration of human smooth muscle cells", "setting": "[2]", "value": "able to stimulate"}, {"measurement": "proliferation of human smooth muscle cells", "setting": "[2]", "value": "able to stimulate"}, {"measurement": "ROS production", "setting": "[3]", "value": "induced"}, {"measurement": "ERK phosphorylation (p-ERK)", "setting": "[4]", "value": "increased"}, {"measurement": "type I collagen gene up-regulation", "setting": "[5]", "value": "observed only in F alpha cells"}, {"measurement": "increase of type I collagen gene transcription", "setting": "[6]; 10 micrograms/ml, 1 hour incubation", "value": "stimulating an increase"}, {"measurement": "duration of collagen gene stimulation", "setting": "[6]; time course", "value": "up to 24 hours"}, {"measurement": "peak of type I collagen gene transcription", "setting": "[6]; time course", "value": 6, "unit": "h"}, {"measurement": "immunoprecipitation of PDGFR alpha", "setting": "[7]", "value": "specifically bound"}, {"measurement": "kdiss (dissociation rate constant)", "setting": "[8]", "value": 0.02, "unit": "s⁻¹"}]}
